Results taken from the supplement of paper PMC10126150.
Values marked as one replicate rest on one cluster of the flow cell; about a third of the high ones do not repeat.

Tested on: ATP
Assay: switch fluorescence ratio, 500 uM ATP over buffer (Cy3 cluster intensity, sum of 5 cycles each) (fold (ratio)); higher = stronger signal-on switching upon ATP binding; sequences stand for … in TCGTCGGCAGCGTCAGATGTGTATAAGAGACAGTTTTTTTTTTTTTTTTTTTTTTTTT…TC
Settings: aptamer strand: ATP DNA aptamer (quencher-CACCTGGGGGAGTATTGCGGAGGAAGG + anchor), 100 nM annealed; ATP concentration: 500 uM; one replicate
How it was run: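 Switching-strand clusters labelled with Cy3 on a modified Illumina MiSeq flow-cell were annealed to 100 nM quencher-labelled ATP aptamer, imaged in selection buffer, and re-imaged after 15 min with 500 uM ATP at 22 °C. This was done over five cycles with NaOH stripping and re-annealing in between. The fluorescence ratio is summed target-cycle over summed buffer-cycle Cy3 intensity per cluster, averaged per switch-domain sequence, excluding clusters outside 100-1000 RFU.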
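Further: ATP exposure 15 min at 22 °C before imaging.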

Sequence | switch fluorescence ratio
CTCTACAAGG | 1.08
TTAATCCGCA | 4.47
GGCGGGGATT | 1.04
AACATCTGCT | 1.04
AGTGTTTGAC | 1
GGTTGATGGT | 1
TCGGATCCTT | 1.01
GTGTTTCAGT | 0.963
ATACAATTAG | 1
AAGTCTCAGT | 1.01
ACGTCGAATG | 0.986
TAACTCGTTT | 0.948
TCTCAATAGT | 1.07
TGGACCAACG | 1.09
TCAGACTAAA | 1.04
TAAGTAATTG | 1.05
AATAGGAAG | 0.929
CAAAGCGCCG | 1.04
CGGGCGGATT | 1.01
TGTATGCCGG | 1.04
AAGATAGTAT | 0.967
CTAGTTGCTA | 0.953
TAAGTAACCA | 1.05

Sequence | switch fluorescence ratio
GAGGACCCGG | 0.986
CTATCTAGGC | 1.07
TTCGGTCATG | 0.987
TCCAACTGGG | 1.01
TCTTAGCGGA | 0.992
TACCTTCTAC | 1.87
GAGACCTAGA | 1.02
CTTCGTCATG | 1.14
TAGATGAATG | 0.972
TGAGCCTGTT | 0.985
GTGTGCGTGC | 0.943
GTGTGCGGCA | 1.01
CTTGACTAT | 0.954
GACCGTTTAA | 1.02
GAATGCCACG | 1.09
TAATAATTG | 1.02
TCACTCAAAG | 1.03
ATTGCTGATC | 0.985
TCGGCTTTGT | 0.957
TTTCCAGTTT | 0.977
ACAATTACCC | 1.17
GGTCTAAATG | 1.02
AAGAGTCAA | 1.02

Sequence | switch fluorescence ratio
CCACAGATTC | 1.11
TCGACGTGGC | 1.2
CGGGGTGCAA | 1.31
CGGCCTGTCG | 0.897
AGGTTAGTAT | 0.991
AGTTGCGGGG | 1.04
ACGATGGTGT | 1.05
AGGAGTTCGC | 0.976
AGCGGCCAGT | 1.01
GACGTGGACA | 1.07
GTAGCGCAGA | 0.967
TAAACGATGG | 1.01
GCGCGGGGTC | 1.03
CCAGGCTTTT | 1.05
GTCCTGTGGC | 0.972
AAGATAGGAC | 0.989
TGGCGAACGC | 0.996
GTCTGTAAGC | 1.04
CGGAGGGTAT | 1
GGTTGAATCT | 0.981
TCTTTGTGTT | 0.994
ATAGGTATAC | 1.06
AGGCGCTTAA | 0.994

Sequence | switch fluorescence ratio
GTCGTAGAGA | 1.02
TGCTCAAGAG | 1.03
AAGGGCGGT | 1.01
GGATTCAAGA | 0.93
CACTAAAATA | 1.09
TTTTATTG | 1.02
CGGGCGGATC | 1.01
GATTCACTGC | 0.987
CGTCAGTAAT | 1.6
GCTTATGACC | 1.06
GTATATTAGT | 0.989
TTTGGTGAGA | 1.04
AGGTGGGCTA | 1.01
GGGTGTGAAT | 1.03
AAAAGTCGAA | 0.958
CCATACAAT | 1.1
CGGGCCAGGG | 1.01
TGCTGGTTTG | 1.02
GCGCAAGTTG | 1.06
CGATGGCAA | 3.17
GGACTTTAAA | 1.01
AAACGAAGTC | 1.02
TATGCACATG | 1.02

Sequence | switch fluorescence ratio
CCTGTACAT | 1.03
CAGTCAGGA | 0.971
AAGGGAGGTA | 1.01
CGGTTCCGCC | 0.979
GCGGGTCATC | 1.08
ATCGTGGTCG | 1.01
AGGGACTAAG | 1
TTCCCAAAAT | 1.55
ATTCGAGGAG | 0.989
ATGCTTCACT | 0.953
TGGTGTTGTT | 1.01
ACAGTCTGAT | 0.944
GTTAAGGACT | 1.02
TCCTTGTGGA | 0.987
TTTGCATTA | 1.2
ATTCCCTGCC | 1.3
CATGGGTGC | 1.06
GCGTCAAACC | 1.04
AACACGCGCA | 1.06
TCGGATACGG | 1.01
GGGGTTGCGG | 1
TCGGTTAAG | 1.06
TTCTAAGACT | 1.06

Sequence | switch fluorescence ratio
TGGTGCATTG | 0.975
GTAACAGGGC | 1.04
GACTTTACGA | 1.22
CCTACACGGG | 1.08
CGAAAATGCG | 0.999
TGCTTTATT | 0.98
ACGGGCCTGT | 1.04
GGTCTTGTGA | 0.952
TCAGTCTTC | 1
TTCGCTGTCG | 0.988
CTTGGTGCCG | 0.997
AGGCTATGAC | 1.01
TGCACCCCGC | 1.21
AGGCTTTCTG | 0.992
GCTCGCTTGC | 1.54
GGCAGTTAT | 0.999
CGCGGGCCTG | 0.98
TACCGGCGCA | 1.3
CGGGTTAAGA | 1.06
TCTAGCGAAA | 0.932
AGCTGCAGGC | 1.02
GTTACTTTCG | 1.05
AGCCTGTACG | 1.02

Sequence | switch fluorescence ratio
TTCGTCGGCT | 1.05
GTAGAGTTGA | 0.979
CGACCTTCCG | 2.86
CGGAAATTGC | 1.02
ATAATACCAA | 1.01
CCTATTTCAA | 1.1
GCCCCAAATG | 1.03
CCAAGAACGG | 1.07
GGTCAGTGCA | 0.991
TGCATGGAAG | 1.01
CGTGACCATA | 1.15
AACTCGAGAG | 1
TGAATGGGCC | 0.94
CAGCTGGCGG | 1.01
AGACTCCTAA | 1.05
TGACCAATAA | 0.983
AGAGTCCCAA | 1.06
ATCGAGGGGC | 0.948
TGTATGGAAG | 1.02
